{"source": "paper PMC12820563", "about": "“FoxP3 forms a head-to-head dimer in vivo and stabilizes its multimerization on adjacent microsatellites”", "note": "Some of the results follow.", "data": [{"target": "T1, MBP-FoxP1dN (Mus musculus, UniProt P58462 326-579)", "T1 sequence": "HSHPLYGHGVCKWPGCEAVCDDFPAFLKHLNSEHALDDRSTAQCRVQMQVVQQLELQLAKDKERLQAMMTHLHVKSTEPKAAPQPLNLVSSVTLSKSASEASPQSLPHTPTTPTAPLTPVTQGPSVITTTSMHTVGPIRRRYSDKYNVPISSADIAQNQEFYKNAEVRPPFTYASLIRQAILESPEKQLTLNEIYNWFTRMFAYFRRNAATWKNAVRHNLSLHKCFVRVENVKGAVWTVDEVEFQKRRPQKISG", "assay": "PD-seq (MBP pull-down with sequencing); 20 mM Tris-HCl pH 7.5, 100 mM NaCl, 1.5 mM MgCl2, 0.4 uM protein, 0.1 uM dsDNA library, 30 min, room temperature, amylose pull-down; high values mean tight binding", "settings": "protein: recombinant; tags: His6-MBP; chain copies: 2; dsDNA, one strand shown", "how_it_was_run": "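A fragment of mouse FoxP3 or FoxP1 without its N-terminus, carrying a His6-MBP tag and produced in E. coli, was combined at 0.4 µM with a 0.1 µM degenerate double-stranded DNA library filled in with Klenow. The mixture sat for 30 min at room temperature in Tris pH 7.5 buffer containing NaCl and MgCl2. Protein–DNA complexes were captured on amylose resin, washed three times, and the DNA was freed with proteinase K, barcoded by PCR and sequenced on Illumina. Binding is expressed as reads-per-million enrichment of pull-down over input, with replicates pooled.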", "values": [{"sequence": "GATGATTGTTCTCCCAGCTGATGAATTCTCGAGATCGAGTAAACAAATTTTCCTAATCTTTCTGTTCAAGCGCCATCTAC", "binding signal": "0.774 RPM ratio (pull-down/input)"}, {"sequence": "GATGATTGTTCTCCCAGCTGATGAATTCTCACCGTCGAGTAAACAAATTTTCCTAATCTTTCTGTTCAAGCGCCATCTAC", "binding signal": "0.825 RPM ratio (pull-down/input)"}, {"sequence": "GATGATTGTTCTCCCAGCTGATGAATTTATAGCATCGAGTAAACAAATTTTCCTAATCTTTCTGTTCAAGCGCCATCTAC", "binding signal": "1.29 RPM ratio (pull-down/input)"}, {"sequence": "GATGATTGTTCTCCCAGCTGATGAATTCAGGTCGTCGAGTAAACAAATTTTCCTAATCTTTCTGTTCAAGCGCCATCTAC", "binding signal": "0.793 RPM ratio (pull-down/input)"}, {"sequence": "GATGATTGTTCTCCCAGCTGATGAATTTCCGGGCTCGAGTAAACAAATTTTCCTAATCTTTCTGTTCAAGCGCCATCTAC", "binding signal": "0.767 RPM ratio (pull-down/input)"}, {"sequence": "GATGATTGTTCTCCCAGCTGATGAATTATAGACGTCGAGTAAACAAATTTTCCTAATCTTTCTGTTCAAGCGCCATCTAC", "binding signal": "0.937 RPM ratio (pull-down/input)"}, {"sequence": "GATGATTGTTCTCCCAGCTGATGAATTGCGTTGGTCGAGTAAACAAATTTTCCTAATCTTTCTGTTCAAGCGCCATCTAC", "binding signal": "1.01 RPM ratio (pull-down/input)"}, {"sequence": "GATGATTGTTCTCCCAGCTGATGAATTGCTTCAATCGAGTAAACAAATTTTCCTAATCTTTCTGTTCAAGCGCCATCTAC", "binding signal": "1.06 RPM ratio (pull-down/input)"}, {"sequence": "GATGATTGTTCTCCCAGCTGATGAATTAATACAATCGAGTAAACAAATTTTCCTAATCTTTCTGTTCAAGCGCCATCTAC", "binding signal": "1.64 RPM ratio (pull-down/input)"}, {"sequence": "GATGATTGTTCTCCCAGCTGATGAATTTTAGTCCTCGAGTAAACAAATTTTCCTAATCTTTCTGTTCAAGCGCCATCTAC", "binding signal": "0.782 RPM ratio (pull-down/input)"}, {"sequence": "GATGATTGTTCTCCCAGCTGATGAATTGCGAAATTCGAGTAAACAAATTTTCCTAATCTTTCTGTTCAAGCGCCATCTAC", "binding signal": "1.16 RPM ratio (pull-down/input)"}, {"sequence": "GATGATTGTTCTCCCAGCTGATGAATTTACCCCTTCGAGTAAACAAATTTTCCTAATCTTTCTGTTCAAGCGCCATCTAC", "binding signal": "1.06 RPM ratio (pull-down/input)"}, {"sequence": "GATGATTGTTCTCCCAGCTGATGAATTACTTACTTCGAGTAAACAAATTTTCCTAATCTTTCTGTTCAAGCGCCATCTAC", "binding signal": "1.12 RPM ratio (pull-down/input)"}, {"sequence": "GATGATTGTTCTCCCAGCTGATGAATTCCGCCCGTCGAGTAAACAAATTTTCCTAATCTTTCTGTTCAAGCGCCATCTAC", "binding signal": "0.758 RPM ratio (pull-down/input)"}, {"sequence": "GATGATTGTTCTCCCAGCTGATGAATTGAGGTATTCGAGTAAACAAATTTTCCTAATCTTTCTGTTCAAGCGCCATCTAC", "binding signal": "1.05 RPM ratio (pull-down/input)"}, {"sequence": "GATGATTGTTCTCCCAGCTGATGAATTAAATAGCTCGAGTAAACAAATTTTCCTAATCTTTCTGTTCAAGCGCCATCTAC", "binding signal": "0.967 RPM ratio (pull-down/input)"}, {"sequence": "GATGATTGTTCTCCCAGCTGATGAATTTTATACTTCGAGTAAACAAATTTTCCTAATCTTTCTGTTCAAGCGCCATCTAC", "binding signal": "0.942 RPM ratio (pull-down/input)"}, {"sequence": "GATGATTGTTCTCCCAGCTGATGAATTACGGTGTTCGAGTAAACAAATTTTCCTAATCTTTCTGTTCAAGCGCCATCTAC", "binding signal": "1.02 RPM ratio (pull-down/input)"}, {"sequence": "GATGATTGTTCTCCCAGCTGATGAATTCTGCTTCTCGAGTAAACAAATTTTCCTAATCTTTCTGTTCAAGCGCCATCTAC", "binding signal": "0.821 RPM ratio (pull-down/input)"}, {"sequence": "GATGATTGTTCTCCCAGCTGATGAATTGAGCTAGTCGAGTAAACAAATTTTCCTAATCTTTCTGTTCAAGCGCCATCTAC", "binding signal": "0.79 RPM ratio (pull-down/input)"}, {"sequence": "GATGATTGTTCTCCCAGCTGATGAATTGCGGTAATCGAGTAAACAAATTTTCCTAATCTTTCTGTTCAAGCGCCATCTAC", "binding signal": "1.45 RPM ratio (pull-down/input)"}, {"sequence": "GATGATTGTTCTCCCAGCTGATGAATTCGCAAAGTCGAGTAAACAAATTTTCCTAATCTTTCTGTTCAAGCGCCATCTAC", "binding signal": "0.838 RPM ratio (pull-down/input)"}, {"sequence": "GATGATTGTTCTCCCAGCTGATGAATTCCCACCATCGAGTAAACAAATTTTCCTAATCTTTCTGTTCAAGCGCCATCTAC", "binding signal": "0.867 RPM ratio (pull-down/input)"}, {"sequence": "GATGATTGTTCTCCCAGCTGATGAATTACGGTAATCGAGTAAACAAATTTTCCTAATCTTTCTGTTCAAGCGCCATCTAC", "binding signal": "1.32 RPM ratio (pull-down/input)"}, {"sequence": "GATGATTGTTCTCCCAGCTGATGAATTCCGTTAGTCGAGTAAACAAATTTTCCTAATCTTTCTGTTCAAGCGCCATCTAC", "binding signal": "0.826 RPM ratio (pull-down/input)"}, {"sequence": "GATGATTGTTCTCCCAGCTGATGAATTGGCAAGATCGAGTAAACAAATTTTCCTAATCTTTCTGTTCAAGCGCCATCTAC", "binding signal": "0.837 RPM ratio (pull-down/input)"}, {"sequence": "GATGATTGTTCTCCCAGCTGATGAATTGGCGTGGTCGAGTAAACAAATTTTCCTAATCTTTCTGTTCAAGCGCCATCTAC", "binding signal": "0.863 RPM ratio (pull-down/input)"}, {"sequence": "GATGATTGTTCTCCCAGCTGATGAATTGACGTAATCGAGTAAACAAATTTTCCTAATCTTTCTGTTCAAGCGCCATCTAC", "binding signal": "1.75 RPM ratio (pull-down/input)"}, {"sequence": "GATGATTGTTCTCCCAGCTGATGAATTAGAATGGTCGAGTAAACAAATTTTCCTAATCTTTCTGTTCAAGCGCCATCTAC", "binding signal": "0.88 RPM ratio (pull-down/input)"}, {"sequence": "GATGATTGTTCTCCCAGCTGATGAATTGTTAGCATCGAGTAAACAAATTTTCCTAATCTTTCTGTTCAAGCGCCATCTAC", "binding signal": "1.65 RPM ratio (pull-down/input)"}, {"sequence": "GATGATTGTTCTCCCAGCTGATGAATTTGCAGGCTCGAGTAAACAAATTTTCCTAATCTTTCTGTTCAAGCGCCATCTAC", "binding signal": "0.944 RPM ratio (pull-down/input)"}, {"sequence": "GATGATTGTTCTCCCAGCTGATGAATTATCAAAATCGAGTAAACAAATTTTCCTAATCTTTCTGTTCAAGCGCCATCTAC", "binding signal": "1.22 RPM ratio (pull-down/input)"}, {"sequence": "GATGATTGTTCTCCCAGCTGATGAATTCACATGCTCGAGTAAACAAATTTTCCTAATCTTTCTGTTCAAGCGCCATCTAC", "binding signal": "0.924 RPM ratio (pull-down/input)"}, {"sequence": "GATGATTGTTCTCCCAGCTGATGAATTCCTTAATTCGAGTAAACAAATTTTCCTAATCTTTCTGTTCAAGCGCCATCTAC", "binding signal": "0.935 RPM ratio (pull-down/input)"}, {"sequence": "GATGATTGTTCTCCCAGCTGATGAATTCACCCCCTCGAGTAAACAAATTTTCCTAATCTTTCTGTTCAAGCGCCATCTAC", "binding signal": "0.801 RPM ratio (pull-down/input)"}, {"sequence": "GATGATTGTTCTCCCAGCTGATGAATTTCGTGCCTCGAGTAAACAAATTTTCCTAATCTTTCTGTTCAAGCGCCATCTAC", "binding signal": "0.913 RPM ratio (pull-down/input)"}, {"sequence": "GATGATTGTTCTCCCAGCTGATGAATTATACCTATCGAGTAAACAAATTTTCCTAATCTTTCTGTTCAAGCGCCATCTAC", "binding signal": "0.961 RPM ratio (pull-down/input)"}, {"sequence": "GATGATTGTTCTCCCAGCTGATGAATTTCTCCAGTCGAGTAAACAAATTTTCCTAATCTTTCTGTTCAAGCGCCATCTAC", "binding signal": "0.845 RPM ratio (pull-down/input)"}, {"sequence": "GATGATTGTTCTCCCAGCTGATGAATTGATCCTGTCGAGTAAACAAATTTTCCTAATCTTTCTGTTCAAGCGCCATCTAC", "binding signal": "0.905 RPM ratio (pull-down/input)"}, {"sequence": "GATGATTGTTCTCCCAGCTGATGAATTTGAAGGTTCGAGTAAACAAATTTTCCTAATCTTTCTGTTCAAGCGCCATCTAC", "binding signal": "0.875 RPM ratio (pull-down/input)"}]}]}
